# From the supplement of paper PMC4604168 (melanoma cell lines)
# The other results are listed elsewhere or left out. Single values are uncertain, as repeats are few or missing.
# System: 501Mel
# Assay: cell count relative to DMSO control; melanoma cells; higher = more viable cells
# Conditions: library dose: low library concentration; 72 h
# 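Further: cell number obtained by counting DAPI-stained nuclei in high-throughput microscope images with image analysis software, screen run in 1,536-well plates.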
row,Structure (SMILES),cell count [%]
1,"Cc1ccc(Nc2nccc(N(C)c3ccc4c(C)n(C)nc4c3)n2)cc1S(N)(=O)=O [Pazopanib] + COc1ccc2c(c1)CCC1C2CCC2(C)C(NCCCCCCN3C(=O)C=CC3=O)CCC12 [U73122] (first compound 0.4 µM, partner dose 0.4 µM)",124
2,"CC1(C)CCC(c2ccc(Cl)cc2)=C(CN2CCN(c3ccc(C(=O)NS(=O)(=O)c4ccc(N[C@H](CCN5CCOCC5)CSc5ccccc5)c(S(=O)(=O)C(F)(F)F)c4)cc3)CC2)C1 + O=S(=O)(c1ccccc1)N(CC(F)(F)F)c1ccc(C(O)(C(F)(F)F)C(F)(F)F)cc1 [T0901317] (first compound 0.4 µM, partner dose 1.4 µM)",68.1
3,"Cc1ccc(Nc2nccc(N(C)c3ccc4c(C)n(C)nc4c3)n2)cc1S(N)(=O)=O [Pazopanib] + COC(=O)c1sccc1S(=O)(=O)Nc1ccc(Nc2ccccc2)cc1OC [GSK0660] (first compound 0.4 µM, partner dose 1 µM)",85.5
4,"Cc1ccc(Nc2nccc(N(C)c3ccc4c(C)n(C)nc4c3)n2)cc1S(N)(=O)=O [Pazopanib] + Cn1cc(/C=C2\C(=O)Nc3cccnc32)c2ccccc21 [GW441756] (first compound 0.4 µM, partner dose 0.4 µM)",101
5,"Cc1ccc(Nc2nccc(N(C)c3ccc4c(C)n(C)nc4c3)n2)cc1S(N)(=O)=O [Pazopanib] + C[C@@H](Oc1cc(-c2cnn(C3CCNCC3)c2)cnc1N)c1c(Cl)ccc(F)c1Cl [Crizotinib] (first compound 0.4 µM, partner dose 0.2 µM)",119
6,"CC1(C)CCC(c2ccc(Cl)cc2)=C(CN2CCN(c3ccc(C(=O)NS(=O)(=O)c4ccc(N[C@H](CCN5CCOCC5)CSc5ccccc5)c(S(=O)(=O)C(F)(F)F)c4)cc3)CC2)C1 + COc1ccc(-c2ccc3c(N4CCOCC4)nc(N4C[C@@H](C)O[C@@H](C)C4)nc3n2)cc1CO [KU0063794] (first compound 0.4 µM, partner dose 0.02 µM)",102
7,"O=C(/C=C/c1cccnc1)NCCCCC1CCN(C(=O)c2ccccc2)CC1 + N#Cc1c(O)c2c(-c3ccc(-c4ccccc4O)cc3)csc2[nH]c1=O [A769662] (first compound 0.01 µM, partner dose 2 µM)",101
8,"O=C(/C=C/c1cccnc1)NCCCCC1CCN(C(=O)c2ccccc2)CC1 + COc1ccc(COc2ccc(Cc3cnc(N)nc3N)cc2OC)cc1 [GW2580] (first compound 0.01 µM, partner dose 1 µM)",91.7
9,"Cc1ccc(Nc2nccc(N(C)c3ccc4c(C)n(C)nc4c3)n2)cc1S(N)(=O)=O [Pazopanib] + c1cc(-c2cnn3cc(-c4ccc(OCCN5CCCCC5)cc4)cnc23)ccn1 [Dorsomorphin] (first compound 0.4 µM, partner dose 0.4 µM)",56.7
10,"O=C(/C=C/c1cccnc1)NCCCCC1CCN(C(=O)c2ccccc2)CC1 + CCc1ccc(CCOc2ccc(CC3SC(=O)NC3=O)cc2)nc1 [pioglitazone] (first compound 0.01 µM, partner dose 2 µM)",61
11,"CC1(C)CCC(c2ccc(Cl)cc2)=C(CN2CCN(c3ccc(C(=O)NS(=O)(=O)c4ccc(N[C@H](CCN5CCOCC5)CSc5ccccc5)c(S(=O)(=O)C(F)(F)F)c4)cc3)CC2)C1 + Cc1cc(N2CCOCC2)cc2[nH]c(-c3c(NC[C@@H](O)c4cccc(Cl)c4)cc[nH]c3=O)nc12 [BMS536924] (first compound 0.4 µM, partner dose 0.2 µM)",85.5

# System: A101D
# Assay: as above
# Conditions: library dose: low library concentration; 72 h
row,Structure (SMILES),cell count [%]
1,"O=C(/C=C/c1cccnc1)NCCCCC1CCN(C(=O)c2ccccc2)CC1 + COc1cc2ncnc(Nc3ccc(Oc4ccccc4)cc3)c2cc1OC [SrcI1] (first compound 0.01 µM, partner dose 2 µM)",90.1
2,"O=C(/C=C/c1cccnc1)NCCCCC1CCN(C(=O)c2ccccc2)CC1 + O=S(=O)(c1ccccc1)N(CC(F)(F)F)c1ccc(C(O)(C(F)(F)F)C(F)(F)F)cc1 [T0901317] (first compound 0.01 µM, partner dose 1.4 µM)",68.9
3,"CC1(C)CCC(c2ccc(Cl)cc2)=C(CN2CCN(c3ccc(C(=O)NS(=O)(=O)c4ccc(N[C@H](CCN5CCOCC5)CSc5ccccc5)c(S(=O)(=O)C(F)(F)F)c4)cc3)CC2)C1 + COc1cc(N2CCC(N3CCN(C)CC3)CC2)ccc1Nc1ncc(Cl)c(Nc2ccccc2S(=O)(=O)C(C)C)n1 [NVP-TAE684] (first compound 0.4 µM, partner dose 0.08 µM)",55.5
4,"Cc1ccc(Nc2nccc(N(C)c3ccc4c(C)n(C)nc4c3)n2)cc1S(N)(=O)=O [Pazopanib] + CCN(CC)CCCCNc1ncc2cc(-c3cc(OC)cc(OC)c3)c(NC(=O)NC(C)(C)C)nc2n1 [PD173074] (first compound 0.4 µM, partner dose 0.1 µM)",95.1
5,"CC1(C)CCC(c2ccc(Cl)cc2)=C(CN2CCN(c3ccc(C(=O)NS(=O)(=O)c4ccc(N[C@H](CCN5CCOCC5)CSc5ccccc5)c(S(=O)(=O)C(F)(F)F)c4)cc3)CC2)C1 + O=C(Nc1ccccc1)c1cc([N+](=O)[O-])ccc1Cl [GW9662] (first compound 0.4 µM, partner dose 2 µM)",56.8
6,"O=C(/C=C/c1cccnc1)NCCCCC1CCN(C(=O)c2ccccc2)CC1 + c1cc(-c2cnn3cc(-c4ccc(OCCN5CCCCC5)cc4)cnc23)ccn1 [Dorsomorphin] (first compound 0.01 µM, partner dose 0.4 µM)",87.7
7,"Cc1ccc(Nc2nccc(N(C)c3ccc4c(C)n(C)nc4c3)n2)cc1S(N)(=O)=O [Pazopanib] + CCCCCCCCCCCC1=C(O)C(=O)C=C(O)C1=O [Embelin] (first compound 0.4 µM, partner dose 1.2 µM)",93
8,"Cc1ccc(Nc2nccc(N(C)c3ccc4c(C)n(C)nc4c3)n2)cc1S(N)(=O)=O [Pazopanib] + COc1ccc(-c2ccc3c(N4CCOCC4)nc(N4C[C@@H](C)O[C@@H](C)C4)nc3n2)cc1CO [KU0063794] (first compound 0.4 µM, partner dose 0.02 µM)",92.6
9,"O=C(/C=C/c1cccnc1)NCCCCC1CCN(C(=O)c2ccccc2)CC1 + Cn1cncc1[C@@](N)(c1ccc(Cl)cc1)c1ccc2c(c1)c(-c1cccc(Cl)c1)cc(=O)n2C [tipifarnib] (first compound 0.01 µM, partner dose 0.01 µM)",83.1
10,"Cc1ccc(Nc2nccc(N(C)c3ccc4c(C)n(C)nc4c3)n2)cc1S(N)(=O)=O [Pazopanib] + Oc1nc(-c2ccc(C(F)(F)F)cc2)nc2c1CSCC2 [XAV939] (first compound 0.4 µM, partner dose 2 µM)",88.7
11,"O=C(/C=C/c1cccnc1)NCCCCC1CCN(C(=O)c2ccccc2)CC1 + COc1ccc2c(c1)CCC1C2CCC2(C)C(NCCCCCCN3C(=O)C=CC3=O)CCC12 [U73122] (first compound 0.01 µM, partner dose 0.4 µM)",90.5
12,"CC1(C)CCC(c2ccc(Cl)cc2)=C(CN2CCN(c3ccc(C(=O)NS(=O)(=O)c4ccc(N[C@H](CCN5CCOCC5)CSc5ccccc5)c(S(=O)(=O)C(F)(F)F)c4)cc3)CC2)C1 + NC(=O)c1ccc(N(C(N)=O)c2c(F)cccc2F)nc1-c1ccc(F)cc1F [VX702] (first compound 0.4 µM, partner dose 0.4 µM)",49.5
13,"CC1(C)CCC(c2ccc(Cl)cc2)=C(CN2CCN(c3ccc(C(=O)NS(=O)(=O)c4ccc(N[C@H](CCN5CCOCC5)CSc5ccccc5)c(S(=O)(=O)C(F)(F)F)c4)cc3)CC2)C1 + CCc1ccc(CCOc2ccc(CC3SC(=O)NC3=O)cc2)nc1 [pioglitazone] (first compound 0.4 µM, partner dose 2 µM)",52.9
14,"O=C(/C=C/c1cccnc1)NCCCCC1CCN(C(=O)c2ccccc2)CC1 + Cc1ccc(NC(=O)c2cccc(N(C)C)c2)cc1NC(=O)c1ccc(O)cc1 [ZM336372] (first compound 0.01 µM, partner dose 2 µM)",86.4
15,"Cc1ccc(Nc2nccc(N(C)c3ccc4c(C)n(C)nc4c3)n2)cc1S(N)(=O)=O [Pazopanib] + Cc1cc([N+](=O)[O-])ccc1NS(=O)(=O)c1cc(Cl)ccc1Cl [FH535] (first compound 0.4 µM, partner dose 1 µM)",77.1
16,"CC1(C)CCC(c2ccc(Cl)cc2)=C(CN2CCN(c3ccc(C(=O)NS(=O)(=O)c4ccc(N[C@H](CCN5CCOCC5)CSc5ccccc5)c(S(=O)(=O)C(F)(F)F)c4)cc3)CC2)C1 + CCN(CC)CCCCNc1ncc2cc(-c3cc(OC)cc(OC)c3)c(NC(=O)NC(C)(C)C)nc2n1 [PD173074] (first compound 0.4 µM, partner dose 0.1 µM)",57.3
17,"O=C(/C=C/c1cccnc1)NCCCCC1CCN(C(=O)c2ccccc2)CC1 + COc1ccc(-c2ccc3c(N4CCOCC4)nc(N4C[C@@H](C)O[C@@H](C)C4)nc3n2)cc1CO [KU0063794] (first compound 0.01 µM, partner dose 0.02 µM)",94.2
18,"O=C(/C=C/c1cccnc1)NCCCCC1CCN(C(=O)c2ccccc2)CC1 + O=c1cc(-c2cccc3c2Sc2ccccc2S3)oc(N2CCOCC2)c1 [KU55933] (first compound 0.01 µM, partner dose 1 µM)",90
